Measurements as given in a collection of fitness landscapes (doi:10.1038/s41467-024-54723-y).
Whole data set: some 18,000 sequences, median “TetR repression strength (sort-seq, GFP reporter)” near 0.23, cut for the highest 2% near 0.68. This is one part of the list.

target: TetR (class B, Tn10) (UniProt P04483); assay: TetR repression strength (sort-seq, GFP reporter) (relative to tetO2 = 1); higher = stronger repression; settings: E. coli
Summary of the method: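 E. coli SIG10-MAX carried a low-copy plasmid library with eight randomized operator positions between a constitutive promoter and sfGFP, with TetR constitutively expressed. Cells grew 5 h at 37 °C in LB with 50 µg/mL chloramphenicol, then 10^6 cells were FACS-sorted into 13 fluorescence bins, each Illumina-sequenced. Repression strength is the top bin index plus one minus the read-weighted mean bin, divided by the wild-type operator value. Three independent transformations; variants with ≥30 reads in all replicates and CV ≤0.5 were averaged.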

UniProt P04483, sequence (P04483 whole entry): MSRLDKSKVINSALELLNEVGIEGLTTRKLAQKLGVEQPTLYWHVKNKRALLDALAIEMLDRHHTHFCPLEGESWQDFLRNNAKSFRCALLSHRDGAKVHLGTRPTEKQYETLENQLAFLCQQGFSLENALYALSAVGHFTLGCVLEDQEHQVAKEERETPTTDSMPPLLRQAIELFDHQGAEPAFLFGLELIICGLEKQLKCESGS

Compared with TCCCGCGTAGTAGGCGAGA, TCCCTCTTAGTCCCCGAGA is lower in TetR repression strength: 0.257 for the first, 0.216 for the second.

First: TCCCTCGGAGTGAGGGAGA
Second: TCCCCACAAGTAAGCGAGA
The TetR repression strength of the first is lower: 0.0471 for the first, 0.125 for the second.

Compared with TCCCAGCTAGTCTCGGAGA, TCCCACGGAGTGGGAGAGA is lower in TetR repression strength: 0.251 for the first, 0.0671 for the second.

Compared with TCCCCTGTAGTGGTTGAGA, TCCCAGTCAGTTTTAGAGA is higher in TetR repression strength: 0.181 for the first, 0.189 for the second.

First: TCCCCCGGAGTCTCGGAGA
Second: TCCCCGTTAGTGCGTGAGA
The TetR repression strength of the first is higher: 0.122 for the first, 0.108 for the second.

Going from TCCCATGGAGTGGCTGAGA to TCCCTGGGAGTATGCGAGA, the TetR repression strength falls from 0.3 to 0.183.

First: TCCCGAGGAGTTAGGGAGA
Second: TCCCGGGTAGTGCGGGAGA
The TetR repression strength of the first is higher: 0.301 for the first, 0.0889 for the second.

Going from TCCCTCAAAGTTATTGAGA to TCCCCAGTAGTATGGGAGA, the TetR repression strength rises from 0.182 to 0.234.

First: TCCCCGCAAGTAGACGAGA
Second: TCCCTAGGAGTTGCAGAGA
The TetR repression strength of the first is higher: 0.369 for the first, 0.14 for the second.

Going from TCCCCAGGAGTTGCAGAGA to TCCCCGTCAGTAGTGGAGA, the TetR repression strength falls from 0.295 to 0.216.

Compared with TCCCTCTGAGTGGGGGAGA, TCCCAGCGAGTGGAAGAGA is higher in TetR repression strength: 0.181 for the first, 0.208 for the second.

Going from TCCCGCTGAGTGATGGAGA to TCCCATGGAGTATTCGAGA, the TetR repression strength falls from 0.23 to 0.185.

Compared with TCCCATTCAGTGATTGAGA, TCCCTTTCAGTTGCTGAGA is lower in TetR repression strength: 0.643 for the first, 0.283 for the second.

Compared with TCCCATTTAGTCGGGGAGA, TCCCATAGAGTGTACGAGA is lower in TetR repression strength: 0.164 for the first, 0.159 for the second.

Going from TCCCTTATAGTTCAGGAGA to TCCCAGTCAGTAGCCGAGA, the TetR repression strength falls from 0.184 to 0.0963.

Compared with TCCCCTAAAGTAAAGGAGA, TCCCCTGCAGTCCGCGAGA is higher in TetR repression strength: 0.237 for the first, 0.506 for the second.

Compared with TCCCATATAGTCTGGGAGA, TCCCACAAAGTTTGCGAGA is lower in TetR repression strength: 0.201 for the first, 0.144 for the second.

Going from TCCCCCTAAGTGATTGAGA to TCCCTATCAGTTATCGAGA, the TetR repression strength rises from 0.228 to 0.859.

Compared with TCCCGATCAGTTGCGGAGA, TCCCGGAAAGTTCCGGAGA is lower in TetR repression strength: 0.155 for the first, 0.0749 for the second.

Compared with TCCCCTTGAGTTAGCGAGA, TCCCGGGGAGTCAGTGAGA is lower in TetR repression strength: 0.2 for the first, 0.0491 for the second.

First: TCCCGGAAAGTTATGGAGA
Second: TCCCCAGAAGTGTGGGAGA
The TetR repression strength of the first is higher: 0.296 for the first, 0.0963 for the second.

Going from TCCCGGTTAGTTCGCGAGA to TCCCGCGAAGTATTAGAGA, the TetR repression strength rises from 0.22 to 0.291.

Compared with TCCCGAAGAGTGCCTGAGA, TCCCCGTCAGTGAGAGAGA is lower in TetR repression strength: 0.517 for the first, 0.314 for the second.

First: TCCCTCGGAGTGCCCGAGA
Second: TCCCAGGTAGTTCTAGAGA
The TetR repression strength of the first is lower: 0.215 for the first, 0.337 for the second.

Compared with TCCCGTTAAGTTTATGAGA, TCCCAGCGAGTGTGGGAGA is higher in TetR repression strength: 0.207 for the first, 0.287 for the second.

First: TCCCCTCTAGTAAACGAGA
Second: TCCCGAGTAGTAAGGGAGA
The TetR repression strength of the first is higher: 0.546 for the first, 0.198 for the second.

First: TCCCTCCCAGTAGAGGAGA
Second: TCCCATCAAGTGCAGGAGA
The TetR repression strength of the first is lower: 0.177 for the first, 0.293 for the second.

Compared with TCCCGTAAAGTCTGGGAGA, TCCCTTGGAGTTGGAGAGA is lower in TetR repression strength: 0.363 for the first, 0.173 for the second.

Going from TCCCAGGGAGTTATGGAGA to TCCCGTTAAGTCTGAGAGA, the TetR repression strength rises from 0.234 to 0.301.

First: TCCCCTTTAGTGTTGGAGA
Second: TCCCTTGGAGTGCCCGAGA
The TetR repression strength of the first is higher: 0.405 for the first, 0.23 for the second.

First: TCCCATCAAGTACTTGAGA
Second: TCCCGATGAGTCGAGGAGA
The TetR repression strength of the first is higher: 0.307 for the first, 0.236 for the second.

Going from TCCCTAGAAGTGGGGGAGA to TCCCGGATAGTGGTGGAGA, the TetR repression strength rises from 0.188 to 0.268.

First: TCCCCGCCAGTTCTAGAGA
Second: TCCCATGAAGTGGAGGAGA
The TetR repression strength of the first is lower: 0.276 for the first, 0.311 for the second.

Going from TCCCTCGAAGTATATGAGA to TCCCATTCAGTTGTTGAGA, the TetR repression strength falls from 0.347 to 0.274.

Compared with TCCCGCTTAGTGACCGAGA, TCCCTGGCAGTTGAAGAGA is higher in TetR repression strength: 0.222 for the first, 0.255 for the second.

Compared with TCCCTGCTAGTGGTGGAGA, TCCCATGTAGTGGACGAGA is lower in TetR repression strength: 0.404 for the first, 0.325 for the second.

First: TCCCCTACAGTTCATGAGA
Second: TCCCCATGAGTCGTGGAGA
The TetR repression strength of the first is higher: 0.189 for the first, 0.0672 for the second.

Going from TCCCGTGGAGTGGTCGAGA to TCCCCTCTAGTCGTTGAGA, the TetR repression strength rises from 0.195 to 0.213.

First: TCCCGAAAAGTACGGGAGA
Second: TCCCACCTAGTCGAAGAGA
The TetR repression strength of the first is lower: 0.268 for the first, 0.292 for the second.

First: TCCCAAGTAGTCGCCGAGA
Second: TCCCTTAAAGTCGTGGAGA
The TetR repression strength of the first is higher: 0.193 for the first, 0.112 for the second.

First: TCCCAATCAGTTTATGAGA
Second: TCCCAGCAAGTCTTGGAGA
The TetR repression strength of the first is higher: 0.266 for the first, 0.251 for the second.

Compared with TCCCCCGGAGTCATGGAGA, TCCCGTTCAGTGTATGAGA is higher in TetR repression strength: 0.193 for the first, 0.285 for the second.

Going from TCCCGCAGAGTTGCCGAGA to TCCCTGGAAGTATCAGAGA, the TetR repression strength rises from 0.0842 to 0.165.

Going from TCCCTGATAGTACGCGAGA to TCCCGGCAAGTGGTGGAGA, the TetR repression strength rises from 0.267 to 0.289.

Going from TCCCACGAAGTGGCCGAGA to TCCCATAAAGTGCTCGAGA, the TetR repression strength rises from 0.133 to 0.225.

First: TCCCGGGGAGTATGAGAGA
Second: TCCCGGGGAGTTGAAGAGA
The TetR repression strength of the first is higher: 0.228 for the first, 0.154 for the second.

First: TCCCGGAAAGTGGTAGAGA
Second: TCCCCGCAAGTGCACGAGA
The TetR repression strength of the first is lower: 0.0957 for the first, 0.152 for the second.

First: TCCCTTATAGTCGTGGAGA
Second: TCCCGAAGAGTGATAGAGA
The TetR repression strength of the first is lower: 0.162 for the first, 0.499 for the second.

First: TCCCCCATAGTCAGGGAGA
Second: TCCCGGTTAGTCGCGGAGA
The TetR repression strength of the first is higher: 0.312 for the first, 0.262 for the second.

Compared with TCCCCACCAGTTGTCGAGA, TCCCTGCCAGTATGCGAGA is higher in TetR repression strength: 0.213 for the first, 0.247 for the second.

First: TCCCACACAGTTGGTGAGA
Second: TCCCAGGTAGTACCCGAGA
The TetR repression strength of the first is lower: 0.00196 for the first, 0.0415 for the second.

Compared with TCCCGGAAAGTATAAGAGA, TCCCTACTAGTAGATGAGA is higher in TetR repression strength: 0.184 for the first, 0.317 for the second.

First: TCCCTTGAAGTATCGGAGA
Second: TCCCTGTGAGTACTCGAGA
The TetR repression strength of the first is lower: 0.146 for the first, 0.183 for the second.

First: TCCCGTTCAGTAAGGGAGA
Second: TCCCTCTGAGTATCTGAGA
The TetR repression strength of the first is lower: 0.124 for the first, 0.311 for the second.

First: TCCCATCCAGTGGCGGAGA
Second: TCCCGGGGAGTTAAGGAGA
The TetR repression strength of the first is higher: 0.348 for the first, 0.00806 for the second.

First: TCCCGTATAGTTACGGAGA
Second: TCCCGCAAAGTAGAGGAGA
The TetR repression strength of the first is lower: 0.0141 for the first, 0.248 for the second.

Compared with TCCCAATAAGTCGGTGAGA, TCCCTTCGAGTAATCGAGA is higher in TetR repression strength: 0.279 for the first, 0.34 for the second.

Going from TCCCGTCAAGTGGAAGAGA to TCCCAGGAAGTGATAGAGA, the TetR repression strength rises from 0.239 to 0.373.

Compared with TCCCAGAAAGTCAACGAGA, TCCCTGGTAGTCACGGAGA is lower in TetR repression strength: 0.478 for the first, 0.224 for the second.

Compared with TCCCGGGTAGTATCGGAGA, TCCCATGGAGTTAATGAGA is higher in TetR repression strength: 0.108 for the first, 0.251 for the second.

Going from TCCCGGTCAGTGGGAGAGA to TCCCAGTCAGTTCTGGAGA, the TetR repression strength rises from 0.233 to 0.329.

Going from TCCCTTCAAGTACAAGAGA to TCCCTATAAGTTACTGAGA, the TetR repression strength rises from 0.33 to 0.711.

First: TCCCGGAAAGTGGAAGAGA
Second: TCCCCCGGAGTTGACGAGA
The TetR repression strength of the first is higher: 0.311 for the first, 0.207 for the second.

Going from TCCCTTCAAGTGGACGAGA to TCCCTAGGAGTAGTAGAGA, the TetR repression strength rises from 0.23 to 0.298.

First: TCCCGGACAGTTTGGGAGA
Second: TCCCATCGAGTTTCTGAGA
The TetR repression strength of the first is higher: 0.473 for the first, 0.207 for the second.
